# In the supplement of paper PMC8728848:
# The list shows a part of the results.
# B1: AFL (Aspergillus fumigatus), Q4WW81 (protein)
# chain: STPGAQQVLFRTGIAAVNLTNHLRVYFQDVYGSIRESLYEGSWANGTEKNVIGNAKLGSPVAATSKELKHIRVYTLTEGNTLQEFAYDSGTGWYNGGLGGAKFQVAPYSRIAAVFLAGTDALQLRIYAQKPDNTIQEYMWNGDGWKEGTNLGGALPGTGIGATSFRYTDYNGPSIRIWFQTDDLKLVQRAYDPHKGWYPDLVTIFDRAPPRTAIAATSFGAGNSSIYMRIYFVNSDNTIWQVCWDHGKGYHDKGTITPVIQGSEVAIISWGSFANNGPDLRLYFQNGTYISAVSEWVWNRAHGSQLGRSALPPA
# Experiments:
# Assay in all cases: glycan array binding signal (z-score within array); higher = stronger binding
# Conditions in all cases: glycan notation: IUPAC condensed, linker removed
# [1] = target: Gal(b1-4)GlcNAc(b1-3)Gal(b1-4)Glc
# In short: (§1)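 The binding signal is a Z-score computed within each array. Data were drawn from 3228 arrays in the Consortium for Functional Glycomics database, restricted to those with a known protein sequence. Scores were averaged over arrays of the same protein sequence at different concentrations or buffers, and over linkers, and negative values can be taken as non-binding.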
# [2] = target: Gal(b1-4)GlcNAc(b1-3)Gal(b1-4)GlcNAc
# In short: as §1
# [3] = target: Gal(b1-4)GlcNAc(b1-3)Gal(b1-4)GlcNAc(b1-3)Gal(b1-4)GlcNAc
# In short: as §1
# [4] = target: Gal(b1-4)GlcNAc(b1-3)Gal(b1-4)[Fuc(a1-3)GlcNAc(b1-6)]Gal(b1-4)Glc
# In short: as §1
# [5] = target: Gal(b1-4)GlcNAc(b1-3)Gal(b1-4)[Fuc(a1-3)]GlcNAc(b1-3)Gal(b1-4)[Fuc(a1-3)]GlcNAc
# In short: as §1
# [6] = target: Gal(b1-4)GlcNAc(b1-3)GalNAc
# In short: as §1
# [7] = target: Gal(b1-4)GlcNAc(b1-3)[Gal(b1-4)GlcNAc(b1-6)]Gal(b1-4)GlcNAc
# In short: as §1
# [8] = target: Gal(b1-4)GlcNAc(b1-3)[Gal(b1-4)GlcNAc(b1-6)]GalNAc
# In short: as §1
# [9] = target: Gal(b1-4)GlcNAc(b1-3)[GlcNAc(b1-6)]Gal(b1-4)GlcNAc
# In short: as §1
# [10] = target: Gal(b1-4)GlcNAc(b1-6)Gal(b1-4)GlcNAc
# In short: as §1
# [11] = target: Gal(b1-4)GlcNAc(b1-6)GalNAc
# In short: as §1
# [12] = target: Gal(b1-4)GlcNAc(b1-6)[Gal(b1-3)]GalNAc
# In short: as §1
# Gal(b1-6)Gal = target: Gal(b1-6)Gal
# In short: as §1
# Gal3S(b1-3)GalNAc = target: Gal3S(b1-3)GalNAc
# In short: as §1
# Gal3S(b1-3)GlcNAc = target: Gal3S(b1-3)GlcNAc
# In short: as §1
# [13] = target: Gal3S(b1-3)[Fuc(a1-4)]GlcNAc
# In short: as §1
# Gal3S(b1-4)Glc = target: Gal3S(b1-4)Glc
# In short: as §1
# Gal3S(b1-4)Glc6S = target: Gal3S(b1-4)Glc6S
# In short: as §1
# Gal3S(b1-4)GlcNAc = target: Gal3S(b1-4)GlcNAc
# In short: as §1
# Gal3S(b1-4)GlcNAc6S = target: Gal3S(b1-4)GlcNAc6S
# In short: as §1
# [14] = target: Gal3S(b1-4)[Fuc(a1-3)]Glc
# In short: as §1
# [15] = target: Gal3S(b1-4)[Fuc(a1-3)]Glc6S
# In short: as §1
# Gal3S4S(b1-4)GlcNAc = target: Gal3S4S(b1-4)GlcNAc
# In short: as §1
# Gal3S6S(b1-4)GlcNAc = target: Gal3S6S(b1-4)GlcNAc
# In short: as §1
# Gal3S6S(b1-4)GlcNAc6S = target: Gal3S6S(b1-4)GlcNAc6S
# In short: as §1
# Gal4S(b1-4)GlcNAc = target: Gal4S(b1-4)GlcNAc
# In short: as §1
# Gal4S6S(b1-4)GlcNAc = target: Gal4S6S(b1-4)GlcNAc
# In short: as §1
# Gal6S(b1-3)GlcNAc = target: Gal6S(b1-3)GlcNAc
# In short: as §1
# Gal6S(b1-3)GlcNAc6S = target: Gal6S(b1-3)GlcNAc6S
# In short: as §1
# Gal6S(b1-4)Glc = target: Gal6S(b1-4)Glc
# In short: as §1
# Gal6S(b1-4)Glc6S = target: Gal6S(b1-4)Glc6S
# In short: as §1
# Gal6S(b1-4)GlcNAc = target: Gal6S(b1-4)GlcNAc
# In short: as §1
# Gal6S(b1-4)GlcNAc6S = target: Gal6S(b1-4)GlcNAc6S
# In short: as §1
# GalNAc(a1-3)Gal = target: GalNAc(a1-3)Gal
# In short: as §1
# GalNAc(a1-3)GalNAc = target: GalNAc(a1-3)GalNAc
# In short: as §1
# [16] = target: GalNAc(a1-3)GalNAc(a1-3)Gal(a1-4)Gal(b1-4)GlcNAc
# In short: as §1
# [17] = target: GalNAc(a1-3)GalNAc(b1-3)Gal(a1-4)Gal(b1-4)Glc
# In short: as §1
binder,measurement,setting,value
B1,glycan array binding signal (z-score),[1],-0.386
same,glycan array binding signal (z-score),[2],-0.389
same,glycan array binding signal (z-score),[3],-0.383
same,glycan array binding signal (z-score),[4],0.547
same,glycan array binding signal (z-score),[5],0.622
same,glycan array binding signal (z-score),[6],-0.386
same,glycan array binding signal (z-score),[7],-0.383
same,glycan array binding signal (z-score),[8],-0.382
same,glycan array binding signal (z-score),[9],-0.392
same,glycan array binding signal (z-score),[10],-0.38
same,glycan array binding signal (z-score),[11],-0.34
same,glycan array binding signal (z-score),[12],-0.386
same,glycan array binding signal (z-score),Gal(b1-6)Gal,-0.39
same,glycan array binding signal (z-score),Gal3S(b1-3)GalNAc,-0.387
same,glycan array binding signal (z-score),Gal3S(b1-3)GlcNAc,-0.372
same,glycan array binding signal (z-score),[13],2.08
same,glycan array binding signal (z-score),Gal3S(b1-4)Glc,-0.384
same,glycan array binding signal (z-score),Gal3S(b1-4)Glc6S,-0.386
same,glycan array binding signal (z-score),Gal3S(b1-4)GlcNAc,-0.385
same,glycan array binding signal (z-score),Gal3S(b1-4)GlcNAc6S,-0.382
same,glycan array binding signal (z-score),[14],0.328
same,glycan array binding signal (z-score),[15],-0.034
same,glycan array binding signal (z-score),Gal3S4S(b1-4)GlcNAc,-0.381
same,glycan array binding signal (z-score),Gal3S6S(b1-4)GlcNAc,-0.382
same,glycan array binding signal (z-score),Gal3S6S(b1-4)GlcNAc6S,-0.381
same,glycan array binding signal (z-score),Gal4S(b1-4)GlcNAc,-0.386
same,glycan array binding signal (z-score),Gal4S6S(b1-4)GlcNAc,-0.383
same,glycan array binding signal (z-score),Gal6S(b1-3)GlcNAc,-0.391
same,glycan array binding signal (z-score),Gal6S(b1-3)GlcNAc6S,-0.385
same,glycan array binding signal (z-score),Gal6S(b1-4)Glc,-0.382
same,glycan array binding signal (z-score),Gal6S(b1-4)Glc6S,-0.387
same,glycan array binding signal (z-score),Gal6S(b1-4)GlcNAc,-0.381
same,glycan array binding signal (z-score),Gal6S(b1-4)GlcNAc6S,-0.383
same,glycan array binding signal (z-score),GalNAc(a1-3)Gal,-0.386
same,glycan array binding signal (z-score),GalNAc(a1-3)GalNAc,-0.382
same,glycan array binding signal (z-score),[16],-0.4
same,glycan array binding signal (z-score),[17],-0.381
